# In PMC12040169 (PLOS Biology, 2025):
# This is one part of the list.
# Test system: T1, C. trachomatis L2/434/Bu expressing GFP (CTL2-GFP)
# T1 construct: L2/434/Bu GFP intracellular growth in HeLa cells
# Design: species or system HeLa; C. trachomatis total inclusion area by high-content imaging, normalised to DMSO
# Settings: total inclusion area; 28.5 h, 10 µM; inhibitor
# Method in brief: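 Host cell viability was gauged from Hoechst-stained nuclei counts, while chlamydial growth was taken from total inclusion area and inclusion number per well. Cells were fixed and imaged by high-content microscopy once bulk GFP and resorufin fluorescence had been measured.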
row,SMILES,% of control remaining
1,COC(=O)c1c(NC(=O)C(C)Oc2cc(C)c(Cl)c(C)c2)sc(C(C)=O)c1C (centres unmarked) [CBK265678],89.7215
2,COc1ccc(C(=O)/C=C/c2ccc(N3N=C(c4ccccc4)CC3c3ccccc3)cc2)cc1 (centres unmarked) [CBK262274],74.4429
3,CC(C)(C)c1ccc(S(=O)(=O)N2CCCC[C@H]2CCOC(=O)c2ncccc2C(=O)O)cc1 [CBK200066],106.221
4,O=C1NC2(CCCN(C(=O)c3ccco3)C2)Oc2ccccc21 (centres unmarked) [CBK284800],111.704
5,O=C(Nc1ccc(NC(=O)Nc2cccc(Cl)c2)cc1)Nc1cccc(Cl)c1 [CBK267623],111.34
6,CCN(CC)C(=O)N1CCN(CCCC(=O)c2ccc(F)cc2)CC1 [CBK025042C],63.7041
7,c1cncc(CNc2nccnc2-c2ccoc2)c1 [CBK037635],99.5638
8,CC1(C)Cc2nc3sc4c(=O)n(CC(=O)NCCc5ccccc5)cnc4c3cc2CS1 [CBK269180],77.8977
9,c1ccc(C(Oc2nccnc2-c2ccncc2)c2ccccc2)cc1 [CBK106728],85.2605
10,CCC(=O)N1C2CCC1c1cnc3cc(-c4ccco4)nn3c1C2 (centres unmarked) [CBK284384],76.2626
11,COc1ccc(C(C)C)cc1-c1cnc2[nH]c(=O)n(CCc3cccnc3)c2n1 [CBK064343],68.2108
12,CC(C)(C)Nc1c(C2CCN(C(=O)C3CC3)CC2)nc2ccccn12 [CBK284787],78.6931
13,CC(=O)Oc1ccc2c(=O)c(C3NC(C(=O)O)Cc4c3[nH]c3ccccc43)coc2c1 (centres unmarked) [CBK293948],109.365
14,Cc1ccc(NC(=O)N(Cc2ccc3ccccc3c2)CC2CCNCC2)cc1[N+](=O)[O-] [CBK049771],85.2702
15,O=C(Cc1cccnc1)N1Cc2ccccc2C1 [CBK200320],129.472
16,CC(=O)Nc1ccc(-n2cc(CN3CCC(Sc4ccccn4)CC3)nn2)cc1 [CBK149476],80.8371
17,COc1ccc([C@@H]2CN(C(=O)c3ccccc3)[C@H]3CCN(Cc4ccc(F)cc4)C[C@@H]23)cc1 [CBK285581],53.5983
18,CC(C)CNc1nccnc1-c1ccc2c(c1)OCO2 [CBK088730],89.324
19,Cc1cc(COc2cc(N3CCCNCC3)ncn2)no1 [CBK085462],49.1601
20,CCOC(=O)N1CCN(C(=O)C2CC=CCC2C(=O)O)CC1 (centres unmarked) [CBK266142],112.506
21,CC(=O)N1CC2(CCN(C(=O)c3ccco3)CC2)Nc2ccccc21 [CBK284447],78.9969
22,Cc1c(Cl)cccc1NC(=S)/N=C(\N)Nc1nc(C)c2ccccc2n1 [CBK268866],66.8158
23,COc1cc(CNC2CCCc3c2cnn3C)c(O)c(C(C)(C)C)c1 (centres unmarked) [CBK304716],59.7809
24,COc1ccc(OCCCOc2ccccc2C(C)C)cc1 [CBK026366],58.2354
25,CCCC/C=C\c1nccnc1OCCn1cccc1 [CBK106891],98.9183

row,SMILES,% of control remaining
1,COc1ccc(-c2noc([C@@H]3C[C@@H](O)CN3Cc3cccc(C#N)c3)n2)cc1 [CBK288843],111.27
2,O=C(CCCc1c[nH]c2ccccc12)N1CCn2c(nnc2C2CC2)C1 [CBK283689],109.552
3,CC(C)(O)C(=O)NCc1nc2c(s1)CC(c1ccccc1)CC2 (centres unmarked) [CBK304165],120.153
4,Cn1cc(-c2nccnc2OCCOc2ccccc2)cn1 [CBK107080],104.621
5,CN(C)Cc1cc(C[C@@H]2C[C@H](NC(=O)c3ccnc(Cl)c3)C2(C)C)no1 [CBK289311],105.468
6,COc1nccnc1-c1ccc(C)c(C)c1 [CBK106853],101.83
7,Cc1nc2ccc(C(=O)N(C)Cc3ccco3)cn2c1N(C)C=O [CBK145482],92.0966
8,O=S(=O)(Cc1cc(Cl)ccc1F)N1CCN(CCO)CC1 [CBK306385],67.8957
9,CC(NC(=O)c1cc2ccc(N(C)C)cc2[nH]1)c1ccccn1 (centres unmarked) [CBK281821],104.261
10,Cc1cc(C)n(CC(=O)NC(CC(=O)O)c2ccccc2Cl)n1 (centres unmarked) [CBK305695],79.746
11,CCOC(=O)C1=C(C)Nc2nc(C)nc(Cl)c2O1 [CBK021504],133.198
12,CC(=O)N[C@H]1C[C@@H](Cc2cc(CCO)on2)C1(C)C [CBK289243],112.866
13,O=C(CSc1n[nH]c(=O)n1Cc1ccccc1)NCc1ccc(-c2ccc(Cl)cc2)o1 [CBK296963],53.2855
14,CCC(CC)C(=O)N1CCCC1c1n[nH]cc1-c1ccncc1 (centres unmarked) [CBK283467],101.567
15,N#CCCn1cc(C(=O)N2CCOCC2)c(-c2cccs2)n1 [CBK306195],66.9204
16,O=C1/C(=C/NNc2nc3ccccc3s2)Sc2ccccc21 [CBK261627],91.9856
17,O=C(CCc1ccccc1)Nc1cccc(N2C(=O)C3C4c5ccccc5C(c5ccccc54)C3C2=O)c1 (centres unmarked) [CBK265409],107.294
18,CCOC(=O)N1CCN(S(=O)(=O)c2ccc3c(c2)oc(=O)n3CC)CC1 [CBK305055],67.5151
19,CCOC(=O)CC1=C(C(=O)OCC)C(c2ccccc2C(F)(F)F)C(C#N)=C(N)O1 (centres unmarked) [CBK262710],87.3269
20,NC(=O)CN1CCC(Oc2nccnc2OCc2ccc(Cl)c(Cl)c2)CC1 [CBK083110],93.0625
21,CN1CCN(C(=O)c2sccc2NS(=O)(=O)c2ccc3ccccc3c2)CC1 [CBK004631],84.7515
22,Cc1ccc(S(=O)(=O)Nc2cccc(C(=O)N3CCN(C)CC3)c2)cc1[N+](=O)[O-] [CBK038976],91.8058
23,O=C(NCc1csc2c1CCCC2)N1CCCC(c2cc(O)ncn2)C1 (centres unmarked) [CBK306705],62.1394
24,CCc1cc(=O)oc2cc(OCC(=O)O)c(Cl)cc12 [CBK265182],100.013
25,CCN(CC)C(=O)CN1C(=O)N2CCCN=C2c2ccccc21 [CBK284398],72.2299
